Assay results reported in article PMC9818421.
Where a chain is given by its changes, count along the chain named. Numbers in names are those of the source. These are yes or no findings as the source states them, for the method shown. In cells and extracts the contact can be indirect. Some results given as binding are weak or reduced against the parent protein; the word gives no strength. Tags and fused reporters may be left off the sequences shown. One block for each binder: values may come before it.

Tests used:
[1] = molecular target: T1, FLAG-tagged perilipin 5 (human) (UniProt Q00G26); assay: co-IP; HEK293T cells transfected with PNPLA3, PNPLA3(I148M) or ATGL alone or together with FLAG-tagged PLIN1, 2, 3, 5 or ABHD5; precipitation by the FLAG tag, immunoblot
T1 sequence: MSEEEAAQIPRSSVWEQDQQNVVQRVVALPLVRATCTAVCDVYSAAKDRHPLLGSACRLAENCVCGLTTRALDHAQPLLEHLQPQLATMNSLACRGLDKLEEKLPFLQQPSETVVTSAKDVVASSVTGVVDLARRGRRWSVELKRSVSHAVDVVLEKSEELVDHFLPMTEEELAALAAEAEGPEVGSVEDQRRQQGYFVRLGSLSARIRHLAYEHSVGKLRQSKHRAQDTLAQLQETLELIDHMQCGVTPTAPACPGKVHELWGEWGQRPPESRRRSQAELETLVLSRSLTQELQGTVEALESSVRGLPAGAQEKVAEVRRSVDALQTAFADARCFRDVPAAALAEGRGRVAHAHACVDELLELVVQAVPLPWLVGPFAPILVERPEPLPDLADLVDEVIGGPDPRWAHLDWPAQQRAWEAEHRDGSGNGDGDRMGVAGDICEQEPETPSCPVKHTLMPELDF

[2] = molecular target: T2, FLAG-tagged PNPLA3 (human) (UniProt Q9NST1); assay: co-IP; HEK293T cells transfected with FLAG-tagged PNPLA3 or PNPLA3(I148M) alone and/or together with ATGL, without perilipin 5; precipitation by the FLAG tag, immunoblot
T2 sequence: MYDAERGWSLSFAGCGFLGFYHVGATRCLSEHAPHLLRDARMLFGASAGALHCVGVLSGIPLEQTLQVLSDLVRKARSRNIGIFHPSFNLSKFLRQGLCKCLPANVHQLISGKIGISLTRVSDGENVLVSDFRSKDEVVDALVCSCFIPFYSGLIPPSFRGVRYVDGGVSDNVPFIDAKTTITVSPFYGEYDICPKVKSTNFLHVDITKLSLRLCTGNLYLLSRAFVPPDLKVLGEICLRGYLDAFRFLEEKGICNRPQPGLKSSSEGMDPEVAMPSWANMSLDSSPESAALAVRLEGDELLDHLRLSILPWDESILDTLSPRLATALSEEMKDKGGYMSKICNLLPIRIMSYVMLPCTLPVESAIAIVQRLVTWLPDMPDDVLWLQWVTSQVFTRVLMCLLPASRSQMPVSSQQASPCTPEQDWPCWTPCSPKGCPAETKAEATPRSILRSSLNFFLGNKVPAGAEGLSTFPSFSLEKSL

[3] = molecular target: T3, FLAG-tagged PNPLA3(I148M) (human) (UniProt Q9NST1); assay: as above
T3 sequence: T2 sequence with I148M

[4] = molecular target: T2, FLAG-tagged PNPLA3 (human); assay: co-IP; HEK293T cells transfected with FLAG-tagged PNPLA3, constant amounts of ATGL and increasing amounts of perilipin 5; precipitation by the FLAG tag, immunoblot
[5] = molecular target: T4, FLAG-tagged perilipin 3 (human) (UniProt O60664); assay: co-IP; HEK293T cells transfected with PNPLA3, PNPLA3(I148M) or ATGL alone or together with FLAG-tagged PLIN1, 2, 3, 5 or ABHD5; precipitation by the FLAG tag, immunoblot
T4 sequence: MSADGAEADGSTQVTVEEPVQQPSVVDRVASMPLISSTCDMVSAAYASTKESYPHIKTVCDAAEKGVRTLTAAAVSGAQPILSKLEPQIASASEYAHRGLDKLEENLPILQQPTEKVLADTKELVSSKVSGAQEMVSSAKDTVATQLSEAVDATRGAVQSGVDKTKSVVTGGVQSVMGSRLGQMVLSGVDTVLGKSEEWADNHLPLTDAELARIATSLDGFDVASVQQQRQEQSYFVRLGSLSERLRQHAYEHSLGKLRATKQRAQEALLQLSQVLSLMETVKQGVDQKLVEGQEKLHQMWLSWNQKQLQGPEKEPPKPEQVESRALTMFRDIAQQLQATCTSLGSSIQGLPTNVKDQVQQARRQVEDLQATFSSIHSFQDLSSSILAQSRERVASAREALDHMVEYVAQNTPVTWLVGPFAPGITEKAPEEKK

[6] = molecular target: T2, FLAG-tagged PNPLA3 (human); assay: co-IP; HEK293T cells transfected with FLAG-tagged PNPLA3 and ATGL alone and together with increasing amounts of PLIN1; precipitation by the FLAG tag, immunoblot of PNPLA3, ATGL and perilipin 1
[7] = molecular target: T5, FLAG-tagged ATGL and HA-tagged ATGL (two differently tagged copies) (UniProt Q96AD5); assay: co-IP; HEK293T cells transfected with FLAG-tagged ATGL alone and together with HA-tagged ATGL in the presence or absence of PNPLA3; precipitation by the FLAG tag, immunoblot of HA, FLAG and PNPLA3
T5 sequence: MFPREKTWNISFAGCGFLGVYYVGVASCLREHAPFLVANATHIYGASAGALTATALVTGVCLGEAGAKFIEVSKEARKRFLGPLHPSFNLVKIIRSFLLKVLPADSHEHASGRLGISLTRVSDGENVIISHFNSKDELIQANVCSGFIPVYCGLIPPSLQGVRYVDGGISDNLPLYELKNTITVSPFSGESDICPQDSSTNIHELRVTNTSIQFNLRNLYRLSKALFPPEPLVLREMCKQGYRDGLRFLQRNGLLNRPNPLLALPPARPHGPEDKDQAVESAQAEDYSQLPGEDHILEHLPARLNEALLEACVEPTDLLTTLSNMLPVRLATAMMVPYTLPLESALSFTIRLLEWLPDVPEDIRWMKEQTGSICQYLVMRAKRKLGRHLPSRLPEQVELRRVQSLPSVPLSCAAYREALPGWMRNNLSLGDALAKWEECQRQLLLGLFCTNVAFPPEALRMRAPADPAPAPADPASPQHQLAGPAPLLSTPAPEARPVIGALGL

[8] = molecular target: T5, FLAG-tagged ATGL and HA-tagged ATGL (two differently tagged copies); assay: co-IP; HEK293T cells transfected with FLAG-tagged ATGL alone and together with HA-tagged ATGL; precipitation by the FLAG tag, immunoblot of HA and FLAG

B1: PNPLA3(I148M), no tag named (enzyme, UniProt Q9NST1 1-481)
chain: T2 sequence with I148M
binding [1]: binds

B3: FLAG-tagged ATGL and HA-tagged ATGL (two differently tagged copies) (enzyme, UniProt Q96AD5 1-504)
chain: T5 sequence
binding [7]: binds
binding [8]: binds

Next, values leading:

binding [2]: binds weakly
binding [3]: binds weakly
binding [4]: binds
binding [1]: binds
binding [5]: no binding
binding [6]: binds
B2: adipose triglyceride lipase (ATGL), no tag named (enzyme, UniProt Q96AD5 1-504)
chain: T5 sequence

binding [6]: no binding
B4: perilipin 1 co-transfected in increasing amounts (Figure 6A), no tag named (protein, UniProt O60240 1-522)
chain: MAVNKGLTLLDGDLPEQENVLQRVLQLPVVSGTCECFQKTYTSTKEAHPLVASVCNAYEKGVQSASSLAAWSMEPVVRRLSTQFTAANELACRGLDHLEEKIPALQYPPEKIASELKDTISTRLRSARNSISVPIASTSDKVLGAALAGCELAWGVARDTAEFAANTRAGRLASGGADLALGSIEKVVEYLLPPDKEESAPAPGHQQAQKSPKAKPSLLSRVGALTNTLSRYTVQTMARALEQGHTVAMWIPGVVPLSSLAQWGASVAMQAVSRRRSEVRVPWLHSLAAAQEEDHEDQTDTEGEDTEEEEELETEENKFSEVAALPGPRGLLGGVAHTLQKTLQTTISAVTWAPAAVLGMAGRVLHLTPAPAVSSTKGRAMSLSDALKGVTDNVVDTVVHYVPLPRLSLMEPESEFRDIDNPPAEVERREAERRASGAPSAGPEPAPRLAQPRRSLRSAQSPGAPPGPGLEDEVATPAAPRPGFPAVPREKPKRRVSDSFFRPSVMEPILGRTHYSQLRKKS
